Source: patent publication US10889573B2, “Anthelmintic quinoline-3-carboxamide derivatives” (Bayer Animal Health GMBH, priority 2016, dated 2021)
Some results were stated once for a whole list of compounds, not compound by compound. For at least one compound, name, drawing or mass did not settle the structure.

These molecules were tested against C. elegans Slo-1a (Caenorhabditis elegans, UniProt Q95V25). Settings: CHO cells expressing C. elegans Slo-1a, voltage sensitive dye.
Sequence of C. elegans Slo-1a (Q95V25 whole entry): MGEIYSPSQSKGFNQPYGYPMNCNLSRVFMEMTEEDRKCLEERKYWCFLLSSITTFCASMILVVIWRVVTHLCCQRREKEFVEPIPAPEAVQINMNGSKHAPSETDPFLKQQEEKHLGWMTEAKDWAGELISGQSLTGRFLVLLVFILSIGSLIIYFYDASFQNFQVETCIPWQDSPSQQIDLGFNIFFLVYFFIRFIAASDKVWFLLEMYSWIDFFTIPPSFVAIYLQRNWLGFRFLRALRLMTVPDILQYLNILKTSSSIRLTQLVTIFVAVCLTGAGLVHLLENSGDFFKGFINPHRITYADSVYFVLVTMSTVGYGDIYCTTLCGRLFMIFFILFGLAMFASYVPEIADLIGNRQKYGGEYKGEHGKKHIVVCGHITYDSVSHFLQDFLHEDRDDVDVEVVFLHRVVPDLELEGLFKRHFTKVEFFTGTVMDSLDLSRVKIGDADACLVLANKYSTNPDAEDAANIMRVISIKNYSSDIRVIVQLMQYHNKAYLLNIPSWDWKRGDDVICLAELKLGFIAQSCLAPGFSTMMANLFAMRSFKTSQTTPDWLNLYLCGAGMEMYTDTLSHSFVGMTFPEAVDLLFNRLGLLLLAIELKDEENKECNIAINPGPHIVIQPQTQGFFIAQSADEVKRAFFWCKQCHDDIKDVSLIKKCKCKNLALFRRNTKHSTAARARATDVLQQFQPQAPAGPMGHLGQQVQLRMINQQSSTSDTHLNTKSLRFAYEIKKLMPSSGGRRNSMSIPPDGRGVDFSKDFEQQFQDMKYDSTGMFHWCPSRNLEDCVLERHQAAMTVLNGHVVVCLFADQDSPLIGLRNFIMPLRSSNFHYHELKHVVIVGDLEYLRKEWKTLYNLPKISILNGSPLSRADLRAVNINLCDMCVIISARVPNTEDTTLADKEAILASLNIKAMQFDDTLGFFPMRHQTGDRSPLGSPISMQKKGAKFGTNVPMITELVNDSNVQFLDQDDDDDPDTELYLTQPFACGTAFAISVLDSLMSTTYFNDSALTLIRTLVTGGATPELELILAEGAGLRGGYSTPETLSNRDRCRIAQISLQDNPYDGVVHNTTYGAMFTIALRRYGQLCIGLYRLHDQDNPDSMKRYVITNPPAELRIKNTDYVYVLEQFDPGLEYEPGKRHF

| Structure (SMILES) | pE50 (negative decadic logarithm of EC50) |
| --- | --- |
| O=C(N[C@H]1CCOc2ccccc21)c1cnc2c(-c3cccc(Cl)c3)cc(F)cc2c1N1CCOCC1 [Example 159] | 7,5-8,5 |
| O=C(N[C@H]1CCOc2ccccc21)c1cnc2c(-c3cccc(Cl)c3F)cc(F)cc2c1N1CCOCC1 [Example 160] | > 8,5 |
| O=C(N[C@H]1CCOc2ccccc21)c1cnc2c(-c3cccc(F)c3Cl)cc(F)cc2c1N1CCOCC1 [Example 161] | > 8,5 |
| O=C(N[C@H]1CCOc2ccccc21)c1cnc2c(-c3cc(F)cc(Cl)c3)cc(F)cc2c1N1CCOCC1 [Example 163] | 7,5-8,5 |
| O=C(N[C@H]1CCOc2ccccc21)c1cnc2c(-c3cc(Cl)ccc3F)cc(F)cc2c1N1CCOCC1 [Example 164] | > 8,5 |
| O=C(N[C@H]1CCOc2ccccc21)c1cnc2c(-c3ccc(F)cc3Cl)cc(F)cc2c1N1CCOCC1 [Example 165] | > 8,5 |
| O=C(N[C@H]1CCOc2ccccc21)c1cnc2c(-c3cccc(Cl)c3Cl)cc(F)cc2c1N1CCOCC1 [Example 166] | > 8,5 |
| O=C(N[C@H]1CCOc2ccccc21)c1cnc2c(-c3cccc(Cl)c3)c(F)ccc2c1N1CCOCC1 [Example 167] | > 8,5 |
| CN(C)c1c(C(=O)N[C@H]2CCOc3ccccc32)cnc2c(-c3cccc(Cl)c3F)c(F)ccc12 [Example 171] | > 8,5 |
| CN(C)c1c(C(=O)N[C@H]2CCOc3ccccc32)cnc2c(-c3cccc(Cl)c3)cc(F)cc12 [Example 174] | > 8,5 |
| CN(C)c1c(C(=O)N[C@H]2CCOc3ccccc32)cnc2c(-c3cccc(Cl)c3F)cc(F)cc12 [Example 175] | > 8,5 |
| CN(C)c1c(C(=O)N[C@H]2CCOc3ccccc32)cnc2c(-c3cccc(F)c3Cl)cc(F)cc12 [Example 176] | > 8,5 |
| CN(C)c1c(C(=O)N[C@H]2CCOc3ccccc32)cnc2c(-c3cc(F)cc(Cl)c3)cc(F)cc12 [Example 178] | > 8,5 |
| CN(C)c1c(C(=O)N[C@H]2CCOc3ccccc32)cnc2c(-c3cc(Cl)ccc3F)cc(F)cc12 [Example 179] | > 8,5 |
| O=C(N[C@H]1CCOc2ccccc21)c1cnc2c(-c3cc(Cl)cc(Cl)c3)cccc2c1N1CCSCC1 [Example 181] | > 8,5 |
| CC(C)(C)OC(=O)CNc1c(C(=O)N[C@H]2CCOc3ccccc32)cnc2c(-c3cc(Cl)cc(Cl)c3)cccc12 [Example 182] | 5,3-6,5 |
| CN(CC(=O)OC(C)(C)C)c1c(C(=O)N[C@H]2CCOc3ccccc32)cnc2c(-c3cc(Cl)cc(Cl)c3)cccc12 [Example 183] | 5,3-6,5 |
| CCCNc1c(C(=O)N[C@H]2CCOc3ccccc32)cnc2c(-c3cc(Cl)cc(Cl)c3)cccc12 [Example 184] | > 8,5 |
| NCCNc1c(C(=O)N[C@H]2CCOc3ccccc32)cnc2c(-c3cc(Cl)cc(Cl)c3)cccc12 [Example 185] | 6,5-7,5 |
| O=C(N[C@H]1CCOc2ccccc21)c1cnc2c(-c3cc(Cl)cc(Cl)c3)cccc2c1N1CC[C@@H](O)C1 [Example 186] | > 8,5 |
| O=C(N[C@H]1CCOc2ccccc21)c1cnc2c(-c3cc(Cl)cc(Cl)c3)cccc2c1N1CC[C@H](O)C1 [Example 187] | > 8,5 |

| Structure (SMILES) | pE50 (negative decadic logarithm of EC50) |
| --- | --- |
| O=C(N[C@H]1CCOc2ccccc21)c1cnc2c(-c3ccc(F)c(Cl)c3)cccc2c1N1CCOCC1 [Example 190] | > 8,5 |
| O=C(N[C@H]1CCOc2ccccc21)c1cnc2c(-c3cc(Cl)cc(Cl)c3)c(F)ccc2c1N1CCOCC1 [Example 192] | > 8,5 |
| O=C(N[C@H]1CCOc2ccccc21)c1cnc2c(-c3cccc(Cl)c3Cl)c(F)ccc2c1N1CCOCC1 [Example 200] | > 8,5 |
| O=C(N[C@H]1CCOc2ccccc21)c1cnc2c(-c3cc(Cl)cc(Cl)c3)cccc2c1N1CCC(F)(F)C1 [Example 201] | > 8,5 |
| O=C(N[C@H]1CCOc2ccccc21)c1cnc2c(-c3cc(Cl)cc(Cl)c3)cccc2c1N1CCS(=O)(=O)CC1 [Example 203] | 7,5-8,5 |
| O=C(N[C@H]1CCOc2ccccc21)c1cnc2c(-c3cccc(Cl)c3Cl)c(Cl)ccc2c1N1CCOCC1 [Example 205] | > 8,5 |
| O=C(N[C@H]1CCOc2ccccc21)c1cnc2c(-c3cc(Cl)cc(Cl)c3)c(Cl)ccc2c1N1CCOCC1 [Example 206] | > 8,5 |
| CN(C)c1c(C(=O)N[C@H]2CCOc3ccccc32)cnc2c(-c3cccc(Cl)c3Cl)c(Cl)ccc12 [Example 207] | > 8,5 |
| CN(C)c1c(C(=O)N[C@H]2CCOc3ccccc32)cnc2c(-c3cc(Cl)cc(Cl)c3)c(Cl)ccc12 [Example 208] | > 8,5 |
| O=C(N[C@H]1CCOc2ccccc21)c1cnc2c(-c3cccc(Cl)c3Cl)ccc(F)c2c1N1CCOCC1 [Example 209] | > 8,5 |
| O=C(N[C@H]1CCOc2ccccc21)c1cnc2c(-c3cc(Cl)cc(Cl)c3)ccc(F)c2c1N1CCOCC1 [Example 210] | > 8,5 |
| O=C(N[C@H]1CCOc2ccccc21)c1cnc2c(-c3cc(Cl)cc(Cl)c3)cc(Cl)cc2c1N1CCOCC1 [Example 211] | > 8,5 |
| O=C(N[C@H]1CCOc2ccccc21)c1cnc2c(-c3cccc(Cl)c3Cl)cc(Cl)cc2c1N1CCOCC1 [Example 212] | 7,5-8,5 |
| CN(C)c1c(C(=O)N[C@H]2CCOc3ccccc32)cnc2c(-c3cccc(Cl)c3Cl)cc(Cl)cc12 [Example 213] | 7,5-8,5 |
| Cc1ccc(-c2cccc(Cl)c2Cl)c2ncc(C(=O)N[C@H]3CCOc4ccccc43)c(N3CCOCC3)c12 [Example 214] | > 8,5 |
| Cc1ccc(-c2cc(Cl)cc(Cl)c2)c2ncc(C(=O)N[C@H]3CCOc4ccccc43)c(N3CCOCC3)c12 [Example 215] | > 8,5 |
| Cc1ccc(-c2cc(Cl)cc(Cl)c2)c2ncc(C(=O)N[C@H]3CCOc4ccccc43)c(N(C)C)c12 [Example 217] | > 8,5 |
| Cc1ccc(-c2cccc(Cl)c2Cl)c2ncc(C(=O)N[C@H]3CCOc4ccccc43)c(N(C)C)c12 [Example 218] | 7,5-8,5 |
| CN(C)c1c(C(=O)N[C@H]2CCOc3ccccc32)cnc2c(-c3ccc(F)c(O)c3F)cccc12 [Example 219] | 7,5-8,5 |
| Cc1c(F)cccc1-c1cccc2c(N3CCOCC3)c(C(=O)N[C@H]3CCOc4ccccc43)cnc12 [Example 220] | > 8,5 |
| O=C(N[C@H]1CCOc2ccccc21)c1cnc2c(-c3cc(F)cc(F)c3F)cccc2c1N1CCOCC1 [Example 222] | > 8,5 |

| Structure (SMILES) | pE50 (negative decadic logarithm of EC50) |
| --- | --- |
| O=C(N[C@H]1CCOc2ccccc21)c1cnc2c(-c3cccc4scnc34)cccc2c1N1CCOCC1 [Example 224] | 7,5-8,5 |
| Cc1cc(F)cc(-c2cccc3c(N4CCOCC4)c(C(=O)N[C@H]4CCOc5ccccc54)cnc23)c1 [Example 225] | > 8,5 |
| O=C(N[C@H]1CCOc2ccccc21)c1cnc2c(-c3cc(F)ccc3Cl)cccc2c1N1CCOCC1 [Example 227] | > 8,5 |
| COc1cc(Cl)cc(-c2cccc3c(N4CCOCC4)c(C(=O)N[C@H]4CCOc5ccccc54)cnc23)c1 [Example 228] | > 8,5 |
| CNc1c(C(=O)N[C@H]2CCOc3ccccc32)cnc2c(-c3cccc(Cl)c3)cccc12 [Example 229] | 7,5-8,5 |
| Cc1cc(F)c(-c2cccc3c(N4CCOCC4)c(C(=O)N[C@H]4CCOc5ccccc54)cnc23)cc1Cl [Example 231] | 7,5-8,5 |
| COc1c(-c2cccc3c(N4CCOCC4)c(C(=O)N[C@H]4CCOc5ccccc54)cnc23)ccc(F)c1F [Example 232] | 7,5-8,5 |
| O=C(N[C@H]1CCOc2ccccc21)c1cnc2c(-c3cc(Cl)cc(Cl)c3)c(C(F)(F)F)ccc2c1N1CCOCC1 [Example 233] | > 8,5 |
| CNc1c(C(=O)N[C@H]2CCOc3ccccc32)cnc2c(-c3cccc(Cl)c3F)cccc12 [Example 236] | 7,5-8,5 |
| CNc1c(C(=O)N[C@H]2CCOc3ccccc32)cnc2c(-c3cc(Cl)cc(Cl)c3Cl)cccc12 [Example 237] | > 8,5 |
| Cc1cc(Cl)cc(-c2cccc3c(N4CCOCC4)c(C(=O)N[C@H]4CCOc5ccccc54)cnc23)c1F [Example 239] | > 8,5 |
| Cc1cc(Cl)c(F)c(-c2cccc3c(N4CCOCC4)c(C(=O)N[C@H]4CCOc5ccccc54)cnc23)c1 [Example 240] | > 8,5 |
| CN(C)c1c(C(=O)N[C@H]2CCOc3ccccc32)cnc2c(-c3c(F)ccc(F)c3F)cccc12 [Example 247] | > 8,5 |
| CON(C)c1c(C(=O)N[C@H]2CCOc3ccccc32)cnc2c(-c3ccccc3Cl)cccc12 [Example 248] | > 8,5 |
| CON(C)c1c(C(=O)N[C@H]2CCOc3ccccc32)cnc2c(-c3cccc(Cl)c3Cl)cccc12 [Example 249] | > 8,5 |
| CON(C)c1c(C(=O)N[C@H]2CCOc3ccccc32)cnc2c(-c3cc(Cl)cc(Cl)c3)cccc12 [Example 250] | > 8,5 |
| O=C(N[C@H]1CCOc2ccccc21)c1cnc2c(-c3cccc4ncsc34)cccc2c1N1CCOCC1 [Example 251] | > 8,5 |
| CN(c1c(C(=O)N[C@H]2CCOc3ccccc32)cnc2c(-c3ccccc3Cl)cccc12)C1CC1 [Example 252] | 7,5-8,5 |
| CN(c1c(C(=O)N[C@H]2CCOc3ccccc32)cnc2c(-c3cccc(Cl)c3Cl)cccc12)C1CC1 [Example 253] | 7,5-8,5 |
